The target of test [1] is T1, endogenous USP4 (human (endogenous in 293FT)) (UniProt Q13107).
T1 sequence: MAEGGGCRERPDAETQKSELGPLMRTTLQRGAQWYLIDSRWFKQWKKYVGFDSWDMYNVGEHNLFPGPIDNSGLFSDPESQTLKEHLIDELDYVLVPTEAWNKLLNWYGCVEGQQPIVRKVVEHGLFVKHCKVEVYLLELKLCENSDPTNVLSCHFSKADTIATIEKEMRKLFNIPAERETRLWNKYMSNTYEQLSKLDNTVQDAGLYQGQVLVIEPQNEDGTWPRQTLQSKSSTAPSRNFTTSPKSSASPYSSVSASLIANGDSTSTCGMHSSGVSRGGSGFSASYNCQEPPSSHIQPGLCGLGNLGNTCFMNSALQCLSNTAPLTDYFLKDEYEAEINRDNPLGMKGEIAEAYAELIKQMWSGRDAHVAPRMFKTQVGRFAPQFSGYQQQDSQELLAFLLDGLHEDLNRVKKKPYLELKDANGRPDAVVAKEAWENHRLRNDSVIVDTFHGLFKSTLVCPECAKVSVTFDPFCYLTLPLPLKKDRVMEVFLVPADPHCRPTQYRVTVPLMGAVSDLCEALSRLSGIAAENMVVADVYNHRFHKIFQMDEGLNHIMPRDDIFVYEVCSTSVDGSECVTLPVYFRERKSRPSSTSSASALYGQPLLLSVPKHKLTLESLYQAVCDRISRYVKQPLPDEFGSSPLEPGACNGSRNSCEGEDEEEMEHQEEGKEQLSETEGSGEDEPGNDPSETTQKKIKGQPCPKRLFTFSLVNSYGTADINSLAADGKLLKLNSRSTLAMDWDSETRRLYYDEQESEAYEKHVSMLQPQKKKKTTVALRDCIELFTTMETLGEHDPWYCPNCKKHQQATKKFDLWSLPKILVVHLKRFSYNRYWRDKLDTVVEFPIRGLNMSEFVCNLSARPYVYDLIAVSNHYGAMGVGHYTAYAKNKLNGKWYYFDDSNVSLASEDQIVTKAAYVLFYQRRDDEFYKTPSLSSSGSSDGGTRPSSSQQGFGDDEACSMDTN
The test can be described thus: co-IP; immunoprecipitation of endogenous USP4 with an anti-USP4 antibody from 293FT cell extracts, western blot.

Chains of the proteins cited; added tags and fusions are not shown.
UniProt Q92878: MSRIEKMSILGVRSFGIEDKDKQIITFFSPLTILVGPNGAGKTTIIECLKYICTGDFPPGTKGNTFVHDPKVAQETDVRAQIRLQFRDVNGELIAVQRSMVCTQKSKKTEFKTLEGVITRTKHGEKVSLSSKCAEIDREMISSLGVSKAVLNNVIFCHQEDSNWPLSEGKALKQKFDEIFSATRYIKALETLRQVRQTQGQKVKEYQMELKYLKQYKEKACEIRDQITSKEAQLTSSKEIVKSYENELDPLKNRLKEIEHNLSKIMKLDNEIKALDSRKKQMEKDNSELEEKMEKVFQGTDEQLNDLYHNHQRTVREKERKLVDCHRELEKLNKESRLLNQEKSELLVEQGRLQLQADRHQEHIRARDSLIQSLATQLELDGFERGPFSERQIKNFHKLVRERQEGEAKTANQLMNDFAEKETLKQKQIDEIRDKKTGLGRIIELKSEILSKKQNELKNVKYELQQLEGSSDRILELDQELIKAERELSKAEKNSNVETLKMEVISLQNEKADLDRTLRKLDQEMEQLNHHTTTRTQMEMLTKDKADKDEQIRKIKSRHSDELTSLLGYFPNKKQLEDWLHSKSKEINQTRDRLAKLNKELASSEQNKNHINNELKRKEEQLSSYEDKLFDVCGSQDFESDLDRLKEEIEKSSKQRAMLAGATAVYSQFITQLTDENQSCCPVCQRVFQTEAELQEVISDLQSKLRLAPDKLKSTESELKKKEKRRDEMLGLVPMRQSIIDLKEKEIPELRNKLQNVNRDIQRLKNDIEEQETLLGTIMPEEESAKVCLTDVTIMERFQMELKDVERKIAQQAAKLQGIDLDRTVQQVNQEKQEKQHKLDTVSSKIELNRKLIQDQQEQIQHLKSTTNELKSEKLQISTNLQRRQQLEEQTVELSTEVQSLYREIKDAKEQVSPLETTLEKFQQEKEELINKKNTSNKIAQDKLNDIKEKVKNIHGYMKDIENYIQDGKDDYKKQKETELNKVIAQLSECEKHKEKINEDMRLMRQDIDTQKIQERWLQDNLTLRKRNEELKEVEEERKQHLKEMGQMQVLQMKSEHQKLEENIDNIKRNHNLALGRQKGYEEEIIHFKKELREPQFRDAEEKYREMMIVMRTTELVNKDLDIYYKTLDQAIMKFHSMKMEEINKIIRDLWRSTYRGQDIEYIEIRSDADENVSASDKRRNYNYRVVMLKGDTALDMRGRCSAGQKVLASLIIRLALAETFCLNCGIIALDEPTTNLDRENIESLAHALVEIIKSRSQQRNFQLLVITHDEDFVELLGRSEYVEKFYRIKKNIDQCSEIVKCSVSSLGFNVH

Test [2] has as its target T2, GFP fused to wild-type USP4 (GFP-USP4 WT) (human) (UniProt Q13107).
T2 sequence: T1 sequence
In words: co-IP; GFP immunoprecipitation of GFP-USP4 WT, CD, WT-C464A or CD-C464A from cell extracts (U2OS in Figure 5A), with or without ethidium bromide 50 ug/ml, western blot for CtIP, RAD50, MRE11.

In test [3] the target is T3, GFP-USP4 CD-C464A (human) (UniProt Q13107).
T3 sequence: T1 sequence with C311A, C464A
The test is described as above.

For test [4], the target named is T4, GFP-USP4 WT-C464A (human) (UniProt Q13107).
T4 sequence: T1 sequence with C464A
Described as above.

The target in test [5] is T5, GFP-FLAG-fused full-length (FL) USP4 (human) (UniProt Q13107).
T5 sequence: T1 sequence
The test can be described thus: co-IP; anti-GFP immunoprecipitation of GFP-FLAG-fused USP4 (full length from U2OS lysates; deletion mutants, cell line not stated), western blot for CtIP, RAD50 and MRE11; full length also after DNA damage induction.

For the next test, the target named is T6, USP4 UBL2 domain (human) (UniProt Q13107).
T6 sequence: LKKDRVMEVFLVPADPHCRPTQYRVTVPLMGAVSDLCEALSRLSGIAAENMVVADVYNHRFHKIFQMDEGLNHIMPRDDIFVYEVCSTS
The test is described as above.

A further test concerns the target T7, GFP-FLAG-MRE11 (UniProt P49959).
T7 sequence: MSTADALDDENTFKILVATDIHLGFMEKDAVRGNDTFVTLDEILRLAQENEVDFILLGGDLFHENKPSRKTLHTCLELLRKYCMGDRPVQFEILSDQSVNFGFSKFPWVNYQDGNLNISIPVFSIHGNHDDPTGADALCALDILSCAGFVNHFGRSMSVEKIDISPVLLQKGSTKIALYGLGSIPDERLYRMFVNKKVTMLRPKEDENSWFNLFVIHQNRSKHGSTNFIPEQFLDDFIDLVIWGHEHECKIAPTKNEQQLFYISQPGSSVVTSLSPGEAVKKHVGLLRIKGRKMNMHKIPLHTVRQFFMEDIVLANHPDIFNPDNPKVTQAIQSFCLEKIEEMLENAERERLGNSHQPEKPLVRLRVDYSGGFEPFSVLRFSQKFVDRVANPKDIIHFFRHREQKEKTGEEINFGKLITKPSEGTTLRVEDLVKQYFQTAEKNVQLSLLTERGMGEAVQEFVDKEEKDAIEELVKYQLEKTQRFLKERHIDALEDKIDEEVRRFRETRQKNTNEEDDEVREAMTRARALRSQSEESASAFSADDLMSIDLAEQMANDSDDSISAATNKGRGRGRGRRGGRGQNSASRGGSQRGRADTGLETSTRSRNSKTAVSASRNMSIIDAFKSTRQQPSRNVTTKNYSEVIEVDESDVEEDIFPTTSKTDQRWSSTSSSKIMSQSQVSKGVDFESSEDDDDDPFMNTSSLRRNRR
In words: co-IP; immunoprecipitation of GFP-CtIP or GFP-FLAG-MRE11 from 293FT cell extracts, probed for endogenous USP4.

The record followed here is PMC4643306.

Positions count from the first letter of the chain named. No constants are given. Whether binding was seen depends on the method and setting. In cells and extracts the contact can be indirect. Some entries that bind do so weakly or less than the wild type. For some of these results: Tags and fused reporters may be left off the sequences shown.

With RAD50 (from UniProt Q92878 1-1312), the binding entry in test [1] was “binds”; in test [2], “binds”; in test [3], “binds”; in test [4], “binds”; in test [5] it was “binds”; with USP4 UBL2 domain (human), “no binding”.

B1: endogenous USP4 (enzyme, UniProt Q13107 1-963)
chain: T1 sequence
Consider B1, for which the binding result with GFP-FLAG-MRE11 was “binds”.
